According to patent US6051685A, “Peptide derivatives” (Daiichi Pharmaceuticals Co., Ltd., priority 1994, dated 2000):
Part of at least one peptide drawing is inferred or uncertain, most often the ends.

Columns and labels:
[1] = system: mice; assay: Analgesic activity, tail pressure stimulation method, Method B (apparatus of S. Sakurada, mmHg); type: in vivo
[2] = system: mice; assay: Analgesic activity, tail pressure stimulation method, Method A (UGO BASILE analgesy meter Model 7,200); type: in vivo

SMILES	ED50 (dose inducing 50 percent of % of MPE) ([1]; s.c.) [mg/kg]	ED50 (dose inducing 50 percent of % of MPE) ([1]; p.o.) [mg/kg]	ED50 (dose inducing 50 percent of % of MPE) ([2]; p.o.) [mg/kg]	ED50 (dose inducing 50 percent of % of MPE) ([2]; s.c.) [mg/kg]
CN(CC(N)=O)C(=O)[C@H](Cc1ccccc1)NC(=O)[C@@H](CCCNC(=N)N)NC(=O)[C@H](Cc1ccc(O)cc1)NC(=N)N [H2 NC(NH)-Tyr-(D)Arg-Phe-N(CH3)CH2 CONH2]	0.27			
CN(C)C(=O)[C@H](Cc1ccccc1)NC(=O)[C@@H](CCCNC(=N)N)NC(=O)[C@H](Cc1ccc(O)cc1)NC(=N)N [H2 NC(NH)-Tyr-(D)Arg-Phe-N(Me)2]	1.22			
CCN(CCC(=O)O)C(=O)[C@H](Cc1ccccc1)NC(=O)[C@@H](CCCNC(=N)N)NC(=O)[C@H](Cc1ccc(O)cc1)NC(=N)N [H2 NC(NH)-Tyr-D-Arg-Phe-N(CH2 CH3)CH2 CH2 COOH]	0.15	16.0		
COC(=O)CCN(C)C(=O)[C@H](Cc1ccccc1)NC(=O)[C@@H](CCCNC(=N)N)NC(=O)[C@H](Cc1ccc(O)cc1)NC(=N)N [H2 NC(NH)-Tyr-D-Arg-Phe-N(CH3)CH2 CH2 COOCH3]			8.9	0.12
CN(CCC(=O)O)C(=O)[C@H](Cc1ccccc1)NC(=O)[C@@H](CCCNC(=N)N)NC(=O)[C@H](Cc1ccc(O)cc1)NC(=N)N [H2 NC(NH)-Tyr-D-Arg-Phe-N(CH3)CH2 CH2 COOH]	0.10	6.6	5.8	0.09
CN(CC(=O)O)C(=O)[C@H](Cc1ccccc1)NC(=O)[C@@H](CCCNC(=N)N)NC(=O)[C@H](Cc1ccc(O)cc1)NC(=N)N [H2 NC(NH)-Tyr-D-Arg-Phe-N(CH3)CH2 COOH]	0.13	4.9	17.8	0.39
N=C(N)NCCC[C@@H](NC(=O)[C@H](Cc1ccc(O)cc1)NC(=N)N)C(=O)N[C@@H](Cc1ccccc1)C(=O)NCCCO [H2 NC(NH)-Tyr-D-Arg-Phe-NHCH2 CH2 CH2 OH]	0.88			
N=C(N)NCCC[C@@H](NC(=O)[C@H](Cc1ccc(O)cc1)NC(=N)N)C(=O)N[C@@H](Cc1ccccc1)C(=O)NCCC(N)=O [H2 NC(NH)-Tyr-D-Arg-Phe-NHCH2 CH2 CONH2]	0.13	10.7		
N=C(N)NCCC[C@@H](NC(=O)[C@H](Cc1ccc(O)cc1)NC(=N)N)C(=O)N[C@@H](Cc1ccccc1)C(=O)NCCC(=O)O [H2 NC(NH)-Tyr-D-Arg-Phe-NHCH2 CH2 COOH]	0.14	5.8	18.5	0.32
